# Results from PubChem BioAssay (NCATS).
# The shares of active, inactive and inconclusive entries below differ from those in the screen. For some assays here: A potency beside an inconclusive call is a rough fit, not a confirmed value. The source made the active and inactive calls. Unless noted, the call rests on the fitted dose curve; in most records, active means well fitted curve in the direction sought with a large enough effect; inconclusive means small, poorly fitted or top-dose-only effect, or another doubt; inactive means no such curve, though single readings can be large; an effect the other way counts as inactive or inconclusive.
# Columns and labels:
# [1] = molecular target: Aldehyde dehydrogenase, mitochondrial (Homo sapiens) (UniProt P05091); test: qHTS for Inhibitors of the Aldehyde Dehydrogenase Family (ALDH2) Confirmatory screens (AID 2061303; active means well fitted inhibition curve with a large enough effect; inconclusive means small, poorly fitted or top-dose-only effect; inactive means no such curve, though single readings can be large or run the other way; title and protocol of this record describe different tests; further: nearly all actives have a fitted effect of over 45% in size; further: potency means the concentration at half of the fitted maximal effect; on activity change, negative = inhibition: on the % scale 0 is the no-effect control and ±100 the full control effect); conditions: ALDH inhibition qHTS; activity change, negative = inhibition: at 45.4 µM (top of the series)
# [2] = qHTS for Inhibitors of the Aldehyde Dehydrogenase Family (ALDH1A2, ALDH1A3, ALDH2, ALDH3A1) (AID 2061307); conditions: ALDH inhibition qHTS; activity change, negative = inhibition: at 50.3 µM (top of the series) unless noted; further: nearly all actives have a fitted effect of over 50% in size; on activity change, negative = inhibition: on the % scale 0 is the no-effect control and ±100 the full control effect; on potency: test system not described further here; potency means the concentration at half of the fitted maximal effect
# [3] = molecular target: Retinaldehyde dehydrogenase 3 (Homo sapiens) (UniProt P47895); test: qHTS for Inhibitors of the Aldehyde Dehydrogenase Family (ALDH1A3) Confirmatory screens (AID 2061311); conditions: activity change, negative = inhibition: at 46 µM (top of the series); further: nearly all actives have a fitted effect of over 60% in size; further: potency means the concentration at half of the fitted maximal effect; on activity change, negative = inhibition: on the % scale 0 is the no-effect control and ±100 the full control effect
# [4] = molecular target: Retinal dehydrogenase 2 (Homo sapiens) (UniProt O94788); test: qHTS for Inhibitors of the Aldehyde Dehydrogenase Family (ALDH1A2) Confirmation screens (AID 2061314); conditions: activity, negative = inhibition: at 45.9 µM (top of the series) unless noted; further: nearly all actives have a fitted effect of over 65% in size; further: potency means the concentration at half of the fitted maximal effect; on activity, negative = inhibition: on the % scale 0 is the no-effect control and ±100 the full control effect
# [5] = molecular target: Retinaldehyde dehydrogenase 3 (Homo sapiens) (UniProt P47895); test: qHTS for Inhibitors of the Aldehyde Dehydrogenase Family (ALDH1A3) Validation screen (AID 2061312); conditions: ALDH1A3 enzyme inhibition qHTS validation, fluorescence; activity change, negative = inhibition: at 84.7 µM (top of the series); further: potency means the concentration at half of the fitted maximal effect; nearly all actives have a fitted effect of over 45% in size
# [6] = molecular target: Aldehyde dehydrogenase 1A1 (Homo sapiens) (UniProt P00352); test: qHTS for Inhibitors of the Aldehyde Dehydrogenase Family (ALDH1A1) Confirmatory screens (AID 2061316); conditions: activity change, negative = inhibition: at 47.3 µM (top of the series); further: nearly all actives have a fitted effect of over 65% in size; further: potency means the concentration at half of the fitted maximal effect
# [7] = molecular target: Retinaldehyde dehydrogenase 3 (Homo sapiens) (UniProt P47895); test: qHTS for Inhibitors of the Aldehyde Dehydrogenase Family (ALDH1A3) Primary screen (AID 2061315); conditions: ALDH inhibition qHTS; activity change, negative = inhibition: at 56 µM (top of the series) unless noted; further: potency means the concentration at half of the fitted maximal effect
# [8] = BET inhibitor-based combinations targeting novel dependencies in MECOM-rearranged (r) AML: OCI-AML3 cell line (AID 2202232); conditions: CellTiter-Glo luminescence, 48 h; Potency: OCI-AML3 viability; viability (% of control): at 46 µM (top of the series); further: potency means the concentration at half of the fitted maximal effect; nearly all actives have a fitted effect of over 35% in size
# Method in brief: (§1)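 Viability of cells (500 per well) is scored by luminescent CellTiter-Glo at 48 hr post-dosing. Eleven-point titrations are normalized to DMSO and empty controls and reduced to AUC values.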
# [9] = BET inhibitor-based combinations targeting novel dependencies in MECOM-rearranged (r) AML: MV-4-11 cell line (AID 2202233); conditions: MV-4-11 AML viability, CellTiter-Glo luminescence, 48 h; viability, % of control: at 46 µM (top of the series) unless noted; further: potency means the concentration at half of the fitted maximal effect; nearly all actives have a fitted effect of over 45% in size
# Method in brief: (§2)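 Using pin-tool transfer, drugs were added in 11 doses to cells (500/well), incubated 48 hr, and assessed with CellTiter-Glo. Z-AUC is a mean-centring transformation applied separately to each screened line.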
# [10] = BET inhibitor-based combinations targeting novel dependencies in MECOM-rearranged (r) AML: HNT-34 cell line (AID 2202234); further: potency means the concentration at half of the fitted maximal effect; nearly all actives have a fitted effect of over 35% in size
# Method in brief: as §2
# [11] = BET inhibitor-based combinations targeting novel dependencies in MECOM-rearranged (r) AML: UCSD-AML1 cell line (AID 2202235); conditions: UCSD-AML1 AML cells viability, CellTiter-Glo, 48 h; viability (% of control): at 46 µM (top of the series);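 further: plate controls were DMSO vehicle wells for no effect and blank wells for full effect; nearly all actives have a fitted effect of over 40% in size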
# Method in brief: as §2
# [12] = BET inhibitor-based combinations targeting novel dependencies in MECOM-rearranged (r) AML: AML-194 cell line (AID 2202237; further: potency means the concentration at half of the fitted maximal effect; nearly all actives have a fitted effect of over 40% in size)
# Method in brief: as §1
# Tags describe the fitted curve by direction and shape.
structure (smiles),measurement,setting,value
Cc1c(C(=O)OCC2CCCO2)[nH]c2c1C(=O)CCC2 (stereo not drawn),Potency,[1],inactive
same,Potency,[2],"inconclusive: 5.04 µM [inhibitor, partial curve]"
same,Potency,[3],"inconclusive: 0.447 µM [inhibitor, full curve, poor fit]"
same,Potency,[4],active: 28.3 µM
COc1ccc2c(c1)CCc1sc(NC(=O)c3ccc(Br)cc3)nc1-2,Potency,[1],"inconclusive: 18.2 µM [inhibitor, partial curve]"
same,Potency,[2],"inconclusive: 16.2 µM [inhibitor, partial curve]"
same,Potency,[3],"inconclusive: 11.5 µM [inhibitor, partial curve]"
same,Potency,[4],"inconclusive: 6.47 µM [inhibitor, partial curve]"
NC(=O)C1CCN(c2nccc(-c3ccc4c(c3)OCCCO4)n2)CC1,Potency,[1],"inconclusive: 22.5 µM [inhibitor, partial curve]"
same,Potency,[2],inactive
same,Potency,[3],active: 12.7 µM
same,Potency,[4],"inconclusive: 25.2 µM [inhibitor, partial curve, poor fit]"
COc1ccc(C(=O)N(Cc2ccco2)Cc2cccs2)c(O)c1,Potency,[1],inactive
same,Potency,[2],"inconclusive: 25.2 µM [inhibitor, single point]"
same,Potency,[3],"inconclusive: 20.1 µM [inhibitor, partial curve]"
same,Potency,[4],active: 22.5 µM
N=C(N)c1ccc(N)cc1,Potency,[1],inactive
same,Potency,[2],inactive
same,Potency,[3],"inconclusive: 0.896 µM [inhibitor, partial curve]"
same,Potency,[5],"inconclusive: 2.24 µM [inhibitor, full curve]"
same,Potency,[6],"inconclusive: 20.1 µM [inhibitor, partial curve, poor fit]"
Cc1ccc(NS(=O)(=O)c2ccc3c(c2)CC(=O)N3)cc1C,Potency,[1],inactive
same,Potency,[2],inactive
same,Potency,[3],inactive
same,Potency,[4],"inconclusive: 14.2 µM [inhibitor, partial curve, poor fit]"
COc1ccc(C2=Nn3c(nnc3-c3cc(OC)ccc3OC)SC2)cc1,Potency,[1],"inconclusive: 17.8 µM [inhibitor, partial curve, poor fit]"
same,Potency,[2],active: 20 µM
same,Potency,[3],"inconclusive: 35.5 µM [inhibitor, partial curve]"
same,Potency,[4],inactive
Cc1ccc(NS(=O)(=O)c2ccc3c(c2)C(Cl)(Cl)C(=O)N3)cc1C,Potency,[1],"inconclusive: 12.7 µM [inhibitor, partial curve, poor fit]"
same,Potency,[2],"inconclusive: 11.3 µM [inhibitor, partial curve]"
same,Potency,[3],"inconclusive: 35.7 µM [inhibitor, single point]"
same,Potency,[4],active: 3.18 µM
O=C(CCCCCCC(=O)Nc1ccccc1)NO,Potency,[1],inactive
same,Potency,[2],"inconclusive: 17.9 µM [inhibitor, partial curve]"
same,Potency,[3],inactive
same,Potency,[5],active: 22.4 µM
same,Potency,[7],"inconclusive: 11.2 µM [inhibitor, partial curve]"
same,Potency,[6],inactive
CCN1CCc2nc(N)oc2CC1,Potency,[1],"inconclusive: 17.9 µM [inhibitor, partial curve]"
same,Potency,[2],"inconclusive: 0.603 µM [inhibitor, full curve, poor fit]"
same,Potency,[3],"inconclusive: 25.2 µM [inhibitor, partial curve]"
same,Potency,[5],"inconclusive: 0.631 µM [inhibitor, full curve]"
same,Potency,[4],inactive
same,Potency,[6],"inconclusive: 12.7 µM [inhibitor, partial curve]"
NC(=O)c1cc[n+](CC2=C(C(=O)O)N3C(=O)[C@@H](NC(=O)[C@@H](c4ccccc4)S(=O)(=O)[O-])[C@H]3SC2)cc1,Potency,[1],"inconclusive: 15.9 µM [inhibitor, partial curve, poor fit]"
same,Potency,[2],inactive
same,Potency,[3],inactive
same,Potency,[5],"inconclusive: 2 µM [inhibitor, full curve]"
same,Potency,[4],inactive
same,Potency,[6],"inconclusive: 28.3 µM [inhibitor, partial curve]"
O=C(NCC(=O)N1CCC(c2ccccc2)CC1)c1cccc(-c2ccc(C(F)(F)F)cc2)c1,Potency,[1],"inconclusive: 0.631 µM [inhibitor, full curve, poor fit]"
same,Potency,[2],inactive
same,Potency,[3],inactive
same,Potency,[4],"inconclusive: 6.47 µM [inhibitor, partial curve, poor fit]"
Cc1cc(C)nc(NC(=S)N2CCN(c3cccc4[nH]ccc34)CC2)c1,Potency,[1],"inconclusive: 12.7 µM [inhibitor, partial curve]"
same,Potency,[2],"inconclusive: 11.3 µM [inhibitor, partial curve]"
same,Potency,[3],active: 7.12 µM
same,Potency,[4],"inconclusive: 7.98 µM [inhibitor, partial curve]"
CC(=O)C1CCN(c2ncc(-c3cccc(N(C)C)c3)s2)CC1,Potency,[1],"inconclusive: 22.5 µM [inhibitor, partial curve]"
same,Potency,[2],active: 5.65 µM
same,Potency,[3],"inconclusive: 22.5 µM [inhibitor, partial curve]"
same,Potency,[4],"inconclusive: 31.8 µM [inhibitor, single point]"
Cc1cc(C)nc(NC(=S)N2CCN(c3ccc4nonc4c3)CC2)c1,Potency,[1],"inconclusive: 25.2 µM [inhibitor, partial curve]"
same,Potency,[2],"inconclusive: 0.501 µM [inhibitor, full curve, poor fit]"
same,Potency,[3],active: 15.9 µM
same,Potency,[4],"inconclusive: 31.8 µM [inhibitor, single point]"
O=C([C@H](Cc1ccc(O[S+](=O)([O-])c2cccnc2)cc1)N[S+](=O)([O-])c1ccccn1)N1CCN(c2ccccc2)CC1,Potency,[1],"inconclusive: 8.91 µM [inhibitor, full curve, poor fit]"
same,Potency,[2],active: 15.8 µM
same,Potency,[3],"inconclusive: 39.8 µM [inhibitor, partial curve, poor fit]"
same,Potency,[4],active: 7.98 µM
Cc1cccc(-c2ccc(C=O)cc2)c1,Potency,[1],active: 12.6 µM
same,Potency,[2],"inconclusive: 13.2 µM [inhibitor, full curve]"
same,Potency,[3],active: 0.047 µM
same,Potency,[4],active: 39.8 µM
CC(=O)N(O)CCCCCN1C(=O)CCC1=O,Potency,[1],inactive
same,Potency,[2],inactive
same,Potency,[3],inactive
same,Potency,[4],"inconclusive: 11.3 µM [inhibitor, partial curve]"
Cc1cc(-c2nnc3n2CCCCC3)c(C)n1-c1ccc([N+](=O)[O-])cc1,Potency,[1],"inconclusive: 12.7 µM [inhibitor, partial curve]"
same,Potency,[2],"inconclusive: 28.3 µM [inhibitor, partial curve]"
same,Potency,[3],"inconclusive: 20.1 µM [inhibitor, partial curve]"
same,Potency,[4],active: 22.5 µM
CNC(=O)c1cc(Oc2ccc(NC(=O)c3cccc(C(F)(F)F)c3)cc2)ccn1,Potency,[1],inactive
same,Potency,[2],active: 6.34 µM
same,Potency,[3],"inconclusive: 12.6 µM [inhibitor, full curve, poor fit]"
same,Potency,[4],inactive
Cn1cc(-c2ccc3ncc(Cc4ccc5ncccc5c4)n3n2)cn1,Potency,[1],inactive
same,Potency,[2],"inconclusive: 20.1 µM [inhibitor, partial curve]"
same,Potency,[3],"inconclusive: 25.2 µM [inhibitor, partial curve]"
same,Potency,[5],"inconclusive: 2.51 µM [inhibitor, full curve]"
same,Potency,[4],"inconclusive: 15.9 µM [inhibitor, partial curve]"
same,Potency,[6],inactive
same,Potency,[8],"inconclusive: 16.6 µM [inhibitor, partial curve, poor fit]"
same,Potency,[9],active: 18.6 µM
same,Potency,[10],"inconclusive: 37.2 µM [inhibitor, partial curve, poor fit]"
same,Potency,[11],inactive
same,Potency,[12],"inconclusive: 26.3 µM [inhibitor, single point]"
C[C@H](O)[C@H](O)[C@H]1CNc2nc(N)[nH]c(=O)c2N1,Potency,[1],"inconclusive: 25.2 µM [inhibitor, partial curve]"
same,Potency,[2],"inconclusive: 22.5 µM [inhibitor, partial curve]"
same,Potency,[3],"inconclusive: 11.3 µM [inhibitor, partial curve]"
same,"activity, negative = inhibition",[4],inconclusive: -33.5% [inhibitor]
Cc1cnc(-c2ccccc2C(C)C)nc1NCC1CN(c2cccnc2)C1,Potency,[1],active: 11.3 µM
same,Potency,[2],"inconclusive: 0.355 µM [inhibitor, full curve, poor fit]"
same,Potency,[3],active: 11.3 µM
same,Potency,[4],active: 2.52 µM
Nc1scc2c(C(=O)O)nn(-c3ccccc3)c(=O)c12,Potency,[1],"inconclusive: 12.7 µM [inhibitor, partial curve]"
same,Potency,[2],"inconclusive: 11.3 µM [inhibitor, partial curve]"
same,Potency,[3],"inconclusive: 20.1 µM [inhibitor, partial curve]"
same,Potency,[4],"inconclusive: 12.7 µM [inhibitor, partial curve]"
Oc1ccc(Cn2cc[nH]c2=S)cc1,Potency,[1],inactive
same,Potency,[2],"inconclusive: 25.2 µM [inhibitor, partial curve, poor fit]"
same,Potency,[3],"inconclusive: 12.7 µM [inhibitor, partial curve, poor fit]"
same,Potency,[5],"inconclusive: 0.447 µM [inhibitor, full curve]"
same,Potency,[4],inactive
same,Potency,[6],"inconclusive: 7.98 µM [inhibitor, partial curve]"
Cc1c(C)c(NCC(=O)N(C)C2CCN(Cc3ccc(C(N)=O)cc3)CC2)c(C)c(C)c1N,Potency,[1],"inconclusive: 11.3 µM [inhibitor, partial curve]"
same,Potency,[2],"inconclusive: 0.0398 µM [inhibitor, full curve, poor fit]"
same,Potency,[3],"inconclusive: 20.1 µM [inhibitor, partial curve]"
same,Potency,[5],"inconclusive: 44.7 µM [inhibitor, partial curve, poor fit]"
same,Potency,[4],"inconclusive: 4.49 µM [inhibitor, partial curve]"
same,Potency,[7],"inconclusive: 20 µM [inhibitor, single point]"
same,Potency,[6],"inconclusive: 15.9 µM [inhibitor, partial curve]"
c1ccc(CNc2ccc(N3CCOCC3)cc2)cc1,Potency,[1],"inconclusive: 11.3 µM [inhibitor, partial curve]"
same,Potency,[2],"inconclusive: 3.57 µM [inhibitor, full curve, poor fit]"
same,Potency,[3],"inconclusive: 17.9 µM [inhibitor, partial curve, poor fit]"
same,Potency,[4],active: 12.7 µM
same,Potency,[7],"inconclusive: 10 µM [inhibitor, partial curve]"
